# Assay results published in a collection of fitness landscapes (doi:10.1126/science.1257360).
# Some of the results follow.
# B1: PhoQ; a variant is named by its letters at X, in order, P23837 (parent)
# chain: MKKLLRLFFPLSLRVRFLLATAAVVLVLSLAYGMVALIGYSVSFDKTTFRLLRGESNLFYTLAKWENNKLHVELPENIDKQSPTMTLIYDENGQLLWAQRDVPWLMKMIQPDWLKSNGFHEIEADVNDTSLLLSGDHSIQQQLQEVREDDDDAEMTHSVAVNVYPATSRMPKLTIVVVDTIPVELKSSYMVWSWFIYVLSANLLLVIPLLWVAAWWSLRPIEALAKEVRELEEHNRELLNPATTRELTSLVRNLNRLLKSERERYDKYRTTLTDLTHSLKTPLXXLQXXLRSLRSEKMSVSDAEPVMLEQISRISQQIGYYLHRASMRGGTLLSRELHPVAPLLDNLTSALNKVYQRKGVNISLDISPEISFVGEQNDFVEVMGNVLDNACKYCLEFVEISARQTDEHLYIVVEDDGPGIPLSKREVIFDRGQRVDTLRPGQGVGLAVAREITEQYEGKIVAGESMLGGARMEVIFGRQHSAPKDE
# Variants of: B1
# Assay: enrichment ratio after two sorts for PhoP signalling (ratio (wild type AVST 3.29)); higher = more functional
# Conditions: with PhoP (E. coli)
row,Variant,enrichment ratio
1,RIEY,≤ 0.25
2,VAME,≤ 0.25
3,PICK,≤ 0.25
4,TGRR,≤ 0.25
5,QFNM,≤ 0.25
6,RYAC,≤ 0.25
7,PFDP,≤ 0.25
8,EKHD,≤ 0.25
9,AWNI,≤ 0.25
10,LIWN,≤ 0.25
11,TVHM,≤ 0.25
12,DACR,≤ 0.25
13,FMTK,≤ 0.25
14,QARA,≤ 0.25
15,LKTI,≤ 0.25
16,GKVQ,≤ 0.25
17,VNII,≤ 0.25
18,VQAW,≤ 0.25
19,DPYD,≤ 0.25
20,CHFF,≤ 0.25
21,GFLM,2.69
22,GKYI,≤ 0.25
23,QPVT,≤ 0.25
24,ITFM,≤ 0.25

row,Variant,enrichment ratio
1,LQIR,≤ 0.25
2,NTIM,≤ 0.25
3,MQDP,≤ 0.25
4,ATDE,≤ 0.25
5,ESVI,≤ 0.25
6,YYTF,≤ 0.25
7,PRHI,≤ 0.25
8,DRTG,≤ 0.25
9,MAIY,≤ 0.25
10,MCRN,≤ 0.25
11,VYHT,≤ 0.25
12,ATKF,≤ 0.25
13,ENSV,≤ 0.25
14,VHKW,≤ 0.25
15,ELAR,≤ 0.25
16,PIPC,≤ 0.25
17,LEHT,≤ 0.25
18,MTNF,3.09
19,PWQI,≤ 0.25
20,NRIP,≤ 0.25
21,WVIG,≤ 0.25
22,SWKT,≤ 0.25
23,EFII,≤ 0.25
24,RFEQ,≤ 0.25

row,Variant,enrichment ratio
1,FAET,≤ 0.25
2,PHPG,≤ 0.25
3,HLFM,≤ 0.25
4,FKFR,≤ 0.25
5,TGAG,5.21
6,LFVE,≤ 0.25
7,ILHE,≤ 0.25
8,MARP,≤ 0.25
9,LDDL,≤ 0.25
10,GDHS,≤ 0.25
11,HMSK,≤ 0.25
12,MNIE,≤ 0.25
13,DWVS,≤ 0.25
14,PYYY,≤ 0.25
15,EGSI,≤ 0.25
16,FWLY,≤ 0.25
17,KTAC,≤ 0.25
18,TAYN,10.1
19,TSVT,3.11
20,MTPP,≤ 0.25
21,ELFC,≤ 0.25
22,LFFN,≤ 0.25
23,LNSN,0.263
24,GADF,≤ 0.25

row,Variant,enrichment ratio
1,MQYV,≤ 0.25
2,TSPL,≤ 0.25
3,FPWS,≤ 0.25
4,MICE,≤ 0.25
5,LNCN,≤ 0.25
6,AIRF,≤ 0.25
7,QGKP,≤ 0.25
8,GAFW,≤ 0.25
9,IQLT,≤ 0.25
10,RYSW,≤ 0.25
11,EIYG,≤ 0.25
12,QCMY,≤ 0.25
13,GLHF,≤ 0.25
14,GDIF,≤ 0.25
15,RTVA,≤ 0.25
16,NHFT,≤ 0.25
17,HEYL,≤ 0.25
18,PMKG,≤ 0.25
19,AAWR,≤ 0.25
20,RHNQ,≤ 0.25
21,IDHG,≤ 0.25
22,YEVR,≤ 0.25
23,AECM,0.803
24,CHVL,≤ 0.25

row,Variant,enrichment ratio
1,MKNE,≤ 0.25
2,MRAS,≤ 0.25
3,MGRH,≤ 0.25
4,KWHS,≤ 0.25
5,KCPA,≤ 0.25
6,NDGL,≤ 0.25
7,SKIC,30.5
8,KCLR,≤ 0.25
9,SDGV,≤ 0.25
10,KVHE,≤ 0.25
11,PLFQ,≤ 0.25
12,FASQ,≤ 0.25
13,STAT,4.76
14,ISEE,≤ 0.25
15,TPWE,≤ 0.25
16,ILLI,≤ 0.25
17,MADF,≤ 0.25
18,LGDA,≤ 0.25
19,RQFD,≤ 0.25
20,DTFK,≤ 0.25
21,THYW,≤ 0.25
22,LYTH,≤ 0.25
23,DMPI,≤ 0.25
24,KNST,≤ 0.25

row,Variant,enrichment ratio
1,KSGI,≤ 0.25
2,PMSM,≤ 0.25
3,VQEH,≤ 0.25
4,ILLW,≤ 0.25
5,QFVF,≤ 0.25
6,NAEP,≤ 0.25
7,GLIC,≤ 0.25
8,QNYT,≤ 0.25
9,QLVT,≤ 0.25
10,WHRH,≤ 0.25
11,MFMD,≤ 0.25
12,EENT,≤ 0.25
13,QEMD,≤ 0.25
14,ITPW,≤ 0.25
15,NEYP,≤ 0.25
16,HQYF,≤ 0.25
17,IDSE,≤ 0.25
18,RIMS,≤ 0.25
19,KLWN,≤ 0.25
20,VIPT,≤ 0.25
21,WDDR,≤ 0.25
22,YWKY,≤ 0.25
23,TAAQ,5.45
24,AISG,19

row,Variant,enrichment ratio
1,EGVR,≤ 0.25
2,LGTV,≤ 0.25
3,ENRR,≤ 0.25
4,AVWI,≤ 0.25
5,VNMK,≤ 0.25
6,QCPM,≤ 0.25
7,DDYN,≤ 0.25
8,HMHQ,≤ 0.25
9,LSMY,≤ 0.25
10,PQRQ,≤ 0.25
11,GPWI,≤ 0.25
12,FCIA,≤ 0.25
13,YHHE,≤ 0.25
14,LFDA,≤ 0.25
15,YTDH,≤ 0.25
16,NFSA,≤ 0.25
17,LWMI,≤ 0.25
18,GDNI,≤ 0.25
19,GNFA,≤ 0.25
20,WKDP,≤ 0.25
21,IPKY,≤ 0.25
22,PMHG,≤ 0.25
23,DRMS,≤ 0.25
24,KGNA,≤ 0.25

row,Variant,enrichment ratio
1,TYMS,≤ 0.25
2,WMNK,≤ 0.25
3,FPFR,≤ 0.25
4,YTEP,≤ 0.25
5,HLGC,≤ 0.25
6,VQRY,≤ 0.25
7,LHHN,≤ 0.25
8,HTKA,≤ 0.25
9,GWRL,≤ 0.25
10,RFQF,0.945
11,PDES,≤ 0.25
12,RQRY,≤ 0.25
13,FYQH,≤ 0.25
14,DVDL,≤ 0.25
15,MLET,≤ 0.25
16,KMEG,≤ 0.25
17,SALA,5.84
18,GRHQ,≤ 0.25
19,AWVW,≤ 0.25
20,SVIR,≤ 0.25
21,AVEL,≤ 0.25
22,YFSA,≤ 0.25
23,HKKE,≤ 0.25
24,ARGY,≤ 0.25

row,Variant,enrichment ratio
1,AGLD,≤ 0.25
2,VTKW,≤ 0.25
3,INWR,≤ 0.25
4,LMSH,≤ 0.25
5,FMAV,≤ 0.25
6,NFQE,≤ 0.25
7,MSVC,4.31
8,YIQC,≤ 0.25
9,YSYG,≤ 0.25
10,GHDD,≤ 0.25
11,KAHL,≤ 0.25
12,PGSV,≤ 0.25
13,WSWL,≤ 0.25
14,ASIM,14.6
15,YFSR,≤ 0.25
16,QIFV,≤ 0.25
17,PCEW,≤ 0.25
18,NYAD,≤ 0.25
19,DCWL,≤ 0.25
20,MCDV,≤ 0.25
21,LKVR,≤ 0.25
22,NMVM,≤ 0.25
23,HNLL,≤ 0.25
24,EPFC,≤ 0.25

row,Variant,enrichment ratio
1,YFFF,≤ 0.25
2,WPGY,≤ 0.25
3,YHNG,≤ 0.25
4,RSWV,≤ 0.25
5,HWLQ,≤ 0.25
6,RMQQ,≤ 0.25
7,SECT,24.6
8,QEHA,≤ 0.25
9,HIWD,≤ 0.25
10,DQAT,≤ 0.25
11,PCQG,≤ 0.25
12,TPCV,≤ 0.25
13,IPCR,≤ 0.25
14,YFYQ,≤ 0.25
15,SCAK,6.01
16,AQPW,≤ 0.25
17,YKIG,≤ 0.25
18,TDFS,0.74
19,LQHW,≤ 0.25
20,LALQ,1.26
21,KRRY,≤ 0.25
22,PYDN,≤ 0.25
23,IIHS,≤ 0.25
24,VQIT,≤ 0.25

row,Variant,enrichment ratio
1,MEQY,≤ 0.25
2,NLTN,≤ 0.25
3,MVLV,9.51
4,STLL,16.4
5,PGNF,≤ 0.25
6,LIGM,≤ 0.25
7,TNRV,≤ 0.25
8,SRME,≤ 0.25
9,AMNG,≤ 0.25
10,WFPI,≤ 0.25
11,ECYH,≤ 0.25
12,PPNS,≤ 0.25
13,WCHY,≤ 0.25
14,DVQY,≤ 0.25
15,QKVH,≤ 0.25
16,HFSI,≤ 0.25
17,NQKL,≤ 0.25
18,LYLT,≤ 0.25
19,KVEK,≤ 0.25
20,AKNN,≤ 0.25
21,LLEL,≤ 0.25
22,YYGM,≤ 0.25
23,VPFH,≤ 0.25
24,FWFM,≤ 0.25

row,Variant,enrichment ratio
1,DRCA,≤ 0.25
2,RCQW,≤ 0.25
3,LWQA,≤ 0.25
4,STDM,≤ 0.25
5,HHKR,≤ 0.25
6,QMLN,≤ 0.25
7,WAHY,≤ 0.25
8,NIEL,≤ 0.25
9,FWTQ,≤ 0.25
10,RYVI,≤ 0.25
11,ESSS,≤ 0.25
12,LMWF,≤ 0.25
13,SVTF,7.48
14,SYHF,≤ 0.25
15,NSMV,≤ 0.25
16,PSQV,≤ 0.25
17,QVTI,≤ 0.25
18,PYFW,≤ 0.25
19,SRWE,≤ 0.25
20,TSHM,9.31
21,GDSK,≤ 0.25
22,QGYA,9.47
23,IWVD,≤ 0.25
24,LDSK,≤ 0.25

row,Variant,enrichment ratio
1,TYAS,2.63
2,PPID,≤ 0.25
3,FHNE,≤ 0.25
4,QCLW,≤ 0.25
5,YRGW,≤ 0.25
6,HKDL,≤ 0.25
7,HLTY,≤ 0.25
8,MQLN,≤ 0.25
9,STWT,≤ 0.25
10,FLSY,≤ 0.25
11,GTKI,≤ 0.25
12,TSLL,14
13,ISMC,3.34
14,MLKG,≤ 0.25
15,WDKE,≤ 0.25
16,KYEI,≤ 0.25
17,LQVD,≤ 0.25
18,ERAM,≤ 0.25
